# Laboratory results: PubChem BioAssay AID1345082 (National Center for Advancing Translational Sciences (NCATS), 2018)
# Where “and” joins values, the source holds several entries; their conditions need not be identical. Identical values can stand only once. The whole screen tested about 94,000 compounds, of which about 4,000 (4.3%) were called active. Inconclusive means that the source gave no clear call. Such entries were picked first, then a sample of the others. Calls follow the shape of the dose curve; as a rule, active = well fitted inhibition curve with a large enough effect; inconclusive = small, poorly fitted or top-dose-only effect; inactive = no such curve, though single readings can be large or run the other way. Potencies beside an inconclusive call are fits to weak or partial responses and may not hold up.
# Test: Cytotoxic Profiling in NIH 3T3 Cell Line of Diverse Libraries Using Quantitative High-Throughput Screening; also: nearly all actives have a fitted effect of over 55% in size
# Conditions: NIH 3T3 viability, CellTiter-Glo ATP luminescence, 48-72 h; activity change, negative = cytotoxicity: at 96.7 µM (top of the series); series mostly up to 96.7 µM
# Procedure, shortened: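 Luminescent ATP readout (CellTiter-Glo, 10 min RT) after 48 or 72 hr compound exposure of NIH 3T3 cells seeded at 400 cells/well in 1536-well format; quantitative HTS.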
# % is scaled to controls: 0 for no effect and ±100 for the full control effect; potency is read from the fitted curve at half-maximal effect; tags tell the direction and shape of the fitted curve.
SMILES,"activity change, negative = cytotoxicity",Potency,outcome
CNC(=O)c1cc(C2CC2)nc2onc(C3CCN(C(=O)c4cccc(OC)c4)C3)c12 (configuration not stated),inactive: -4.21%,–,–
CCc1nc2c(c(-c3ccc(Cl)cc3)n1)CCN(Cc1ccc(C#N)cc1)CC2,–,"inconclusive: 50.1 µM [inhibitor, partial curve, poor fit]",–
COc1ccc(F)cc1-c1ccc(CN2CCC(N[S+](=O)([O-])c3ccccc3)C2)cc1 (configuration not stated),–,"inconclusive: 44.7 µM [inhibitor, partial curve, poor fit]",–
Cc1ncsc1C1N(C2CCN(Cc3cn(C)c4ccccc34)CC2)C(=O)C12CCCC2 (configuration not stated),inactive: -22.4%,–,–
Cc1cccc(O[C@H]2COCCN(C(=O)c3ccc(C(F)(F)F)cc3)C2)n1,–,"inconclusive: 35.5 µM [inhibitor, full curve]",–
Cc1cc(C)cc(C(=O)NC(Cc2ccccc2)C(=O)N2CCN(c3ccccn3)CC2)c1 (configuration not stated),–,"inconclusive: 50.1 µM [inhibitor, partial curve, poor fit]",–
O=C(c1ccc2cc[nH]c2c1)N1CCC2(CC1)CC(Cc1cccc(F)c1)CCO2 (configuration not stated),–,"inconclusive: 50.1 µM [inhibitor, partial curve, poor fit]",–
CNCC(=O)N1C[C@@H](COc2cccnc2)[C@H](c2ccccn2)C1,inactive: -7.15%,–,–
O=C(Nc1cccc(C(F)(F)F)c1)O[C@@H]1CO[C@H]2[C@@H]1OC[C@@H]2NC(=O)C1CCC1,–,"inconclusive: 25.1 µM [inhibitor, partial curve, poor fit]",–
CCOc1ccc(C(=O)NC2CCN(c3cc(-c4ccc(F)cc4)[nH]n3)CC2)cc1OCC,–,"inconclusive: 50.1 µM [inhibitor, partial curve, poor fit]",–
CC(C)C(=O)N1CCC2(CC1)OC(=O)N(Cc1ccccc1C#N)C2(C)c1ccccc1 (configuration not stated),–,"inconclusive: 17.8 µM [inhibitor, partial curve, poor fit]",–
COC1CCC12CCN(C(=O)c1ccncc1)CC2 (configuration not stated),inactive: 3.11%,–,–
CC(C)CC(=O)NC(C(=O)N1CCCCC1)C1CCN(C(=O)c2ccc(Cl)cc2)CC1 (configuration not stated),–,"inconclusive: 70.8 µM [inhibitor, single point]",–
Cc1noc(-c2cccn3c(CNC(=O)c4ccc(F)c(Cl)c4)nnc23)n1,inactive: -14.2%,–,–
Cc1cc(Cn2cc3c4c(cccc42)[C@H](CC(C)C)N[C@H](C(=O)N2CCCCCC2)C3)no1,–,active: 31.6 µM,–
COc1cccc(-c2ccc(C(=O)N3CCC(C(=O)N4CCC(C#N)CC4)CC3)cc2)c1,–,"inconclusive: 44.7 µM [inhibitor, partial curve, poor fit]",–
CN1C(=O)c2cncnc2OCC1CNC(=O)Cc1cccc(Cl)c1 (configuration not stated),–,"inconclusive: 15.8 µM [inhibitor, partial curve, poor fit]",–
COCc1noc([C@@H]2CN(C(=O)CCC(C)C)C[C@H]2CO)n1,inactive: -5.07%,–,–
CCc1ccc(N2CC(c3noc(-c4ccco4)n3)CC2=O)cc1 (configuration not stated),–,"inconclusive: 31.6 µM [inhibitor, partial curve, poor fit]",–
Cc1ccc(-c2c(C(=O)NC3CCCCC3)nc3sccn23)cc1,inactive: -21.5% [at 138 µM],–,–
COc1cc(F)ccc1-c1ccnc2nc(Cc3ccc(F)cc3)nn12,–,"inconclusive: 50.1 µM [inhibitor, partial curve, poor fit]",–

SMILES,"activity change, negative = cytotoxicity",Potency,outcome
COc1ccc(Cl)cc1-c1ccc2c(c1)C(=O)N1CCN(C(=O)c3ccco3)C[C@H]1C(=O)N2,–,"inconclusive: 50.1 µM [inhibitor, partial curve, poor fit]",–
COc1cccc(CNC(=O)Cn2ccn3nc(-c4ccccc4)c(CO)c3c2=O)c1OC,–,"inconclusive: 50.1 µM [inhibitor, single point]",–
O=C(NC1CCN(c2ccc3nnc(-c4ccccc4)n3n2)CC1)C1CC1,inactive: -22%,–,–
COc1ccc(-c2nnc([C@H]3CCN(C(=O)c4ccccc4)C3)o2)cc1,–,"inconclusive: 112 µM [inhibitor, single point]",–
COCc1ncc(C)n1CCNC(=O)c1cc(-c2ccc(C)c(C)c2)n[nH]1,inactive: -18.2%,–,–
CCC(C)NC(=O)C1CCN(C(=O)c2ccc(-c3ccccc3OC)cc2)CC1 (configuration not stated),–,"inconclusive: 50.1 µM [inhibitor, partial curve, poor fit]",–
COCC(=O)N(C1CCOCC1)C1CCN(C(=O)Cc2cccnc2)CC1,–,–,inactive
COc1ccc(OCC2(C)COc3ccc(C(=O)NC4CCC(O)CC4)cc3N2)cc1 (configuration not stated),–,"inconclusive: 28.2 µM [inhibitor, full curve]",–
Cc1cc2cc(-c3c(C)noc3C)nc(NC3CC3)c2o1,–,"inconclusive: 100 µM [inhibitor, partial curve]",–
CC(C)CCN1CCC(N2CCN(S(=O)(=O)c3ccc(F)c(Cl)c3)CC2)C1=O (configuration not stated),–,"inconclusive: 39.8 µM [inhibitor, partial curve, poor fit]",–
CN1Cc2ncnc(NCC3CC3)c2CN(c2ccccc2)C1=O,–,"inconclusive: 89.1 µM [inhibitor, partial curve, poor fit]",–
O=C(NC1CCCN(c2cc(-c3ccc(F)cc3)[nH]n2)C1)c1cccc(Br)c1 (configuration not stated),–,"inconclusive: 35.5 µM [inhibitor, partial curve, poor fit]",–
CCc1cc(=O)n(Cc2cccnc2)c(N2CCOCC2)n1,–,"inconclusive: 50.1 µM [inhibitor, partial curve, poor fit]",–
CCN1CC(C(=O)NCc2noc(Cc3ccccc3)n2)CCC1=O (configuration not stated),inactive: -12.4%,–,–
COc1ccccc1CNC(=O)C1CCCN(c2nccc(Nc3ccccc3OC)n2)C1 (configuration not stated),–,active: 35.5 µM,–
COc1ccc(-c2cc(N3CCCC(NC(=O)c4cccc(C#N)c4)C3)n[nH]2)cc1 (configuration not stated),–,"inconclusive: 79.4 µM [inhibitor, partial curve, poor fit]",–
Cc1cc2c(c(=O)n(-c3ccccc3)c(=O)n2CC(=O)Nc2cccc(F)c2)n1C,–,"inconclusive: 70.8 µM [inhibitor, single point]",–
COc1cccc(CNC(=O)c2nc3sccn3c2-c2ccccc2)c1,–,"inconclusive: 50.1 µM [inhibitor, partial curve, poor fit]",–
Cc1ccc(CNC(=O)N2CCC(Oc3ccccc3-c3nc(C)no3)C2)cc1 (configuration not stated),–,"inconclusive: 44.7 µM [inhibitor, partial curve, poor fit]",–
COc1ccc(-c2nc(C(C)C)nc3c2CCN(C(=O)c2ccc(C)cc2)CC3)cc1,–,"inconclusive: 44.7 µM [inhibitor, partial curve, poor fit]",–
C[C@@H](NC(=O)c1ccc2c(c1)OCO2)c1onc(-c2ccc(Cl)cc2)c1C(=O)O,–,"inconclusive: 112 µM [inhibitor, single point]",–

SMILES,"activity change, negative = cytotoxicity",Potency,outcome
O=C(c1ccccc1)N1CCC(n2cc(-c3nc(-c4ccccc4)no3)nn2)C1 (configuration not stated),–,"inconclusive: 11.2 µM [inhibitor, full curve, poor fit]",–
O=C(c1ccc(-n2cnnn2)cc1O)N1CCCC(CCc2ccc(F)cc2)C1 (configuration not stated),–,"inconclusive: 35.5 µM [inhibitor, partial curve, poor fit]",–
CC(C)NC(=O)O[C@@H]1CC[C@]2(C)C(CC[C@@H](O)[C@H]2CC(=O)NCc2ccco2)[C@]1(C)CO (some centres not stated),–,"inconclusive: 100 µM [inhibitor, single point]",–
CC(C)NC(=O)C[C@@H]1CCNC[C@@H]1Cc1cc(-c2ccc(C(C)(C)C)cc2)on1,–,active: 35.5 µM,–
COc1cccc(CNC(=O)c2ccc3nc(-c4ccncc4)oc3c2)c1,–,"inconclusive: 79.4 µM [inhibitor, partial curve]",–
COc1ccc(CCC(=O)N2CCCCCC2CN2CCC(C)CC2)cc1 (configuration not stated),–,"inconclusive: 50.1 µM [inhibitor, partial curve, poor fit]",–
CCN(CCOc1ccccc1)C(=O)c1ccoc1C,inactive: -19.3%,–,–
CN(C)c1ccc(-c2nnc([C@H]3CCN(C(=O)c4ccccn4)C3)o2)cc1,inactive: -12.4% [at 174 µM],–,–
COc1ccc(C(C)NC(=O)c2cc3c(N4CCCC4)nc(C)cn3n2)cc1OC (configuration not stated),inactive: -18.1%,–,–
Cc1cc(C)cc(C(=O)NC2CCN(c3cc(-c4cccs4)[nH]n3)C2)c1 (configuration not stated),–,"inconclusive: 44.7 µM [inhibitor, partial curve, poor fit]",–
COc1ccc(CNC(=O)c2ccc3c(c2)N(C(=O)c2ccc(F)cc2)CC3)cc1,–,"inconclusive: 44.7 µM [inhibitor, partial curve, poor fit]",–
O=C(NC1CCN(c2cc(-c3ccc(F)cc3)[nH]n2)CC1)c1ccc(OC(F)(F)F)cc1,–,active: 28.2 µM,–
CC(C)(C)NC(=O)N1CCCC(c2nc(CCOCC3CCOCC3)no2)C1 (configuration not stated),–,–,inactive
Cc1ccc(CN2CCn3c(nn(-c4ccc(C(F)(F)F)cc4)c3=O)C2)cc1,–,"inactive and inconclusive: 56.2 µM [inhibitor, single point]",–
O[C@@H]1CO[C@H]2[C@@H]1OC[C@@H]2n1cc(-c2ccccc2)nn1,inactive: -9.65% [at 230 µM],–,–
Cc1cc(OCCN2CCOCC2)c(C)c2c1CC[C@@H]([C@H](C)C(=O)NC(C)(C)C)C2,–,"inconclusive: 63.1 µM [inhibitor, full curve]",–
O=C(NCc1ccc(F)cc1)c1ccc2nccn2c1,–,"inconclusive: 56.2 µM [inhibitor, partial curve, poor fit] and inconclusive: 79.4 µM [inhibitor, partial curve]",–
O=C(Cc1ccc(F)cc1)NC1CCN(c2cn[nH]c(=O)c2)CC1,–,–,inactive
COc1cccc(NC(=O)[C@@H]2C[C@H](c3ccc(F)cc3)N([S+](C)(=O)[O-])C2)c1,inactive: -20.2% [at 138 µM],–,–
O=C(C1CC1)N1CCC2(CC1)NC(=O)N(c1cccc(Cl)c1)N2,–,"inconclusive: 35.5 µM [inhibitor, partial curve]",–
